Measured values from PMC5540273 (PLoS ONE, 2017).
For some of these results: Shown are results outside the selection of strong results, which stands elsewhere. This is a selection; strong and weak results do not stand in their true shares.

What was measured:
Settings in all cases: concentration: 1 μM,replicates: in singlicate; n = 1
CASK = system: CASK
CDC2L1 = system: T1, CDC2L1
T1 construct: gene CDK11B

CDC2L2 = system: CDC2L2
CDC2L5 = system: T2, CDC2L5
T2 construct: gene CDK13

CDK11 = system: T3, CDK11
T3 construct: gene CDK19

CDK2 = system: CDK2
CDK3 = system: CDK3
CDK4-cyclinD1 = system: CDK4-cyclinD1
CDK4-cyclinD3 = system: CDK4-cyclinD3
CDK4 = system: CDK4
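Note: KINOMEscan kinase panel screen.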

SMILES | %Inh (CASK) | %Inh (CDC2L1) | %Inh (CDC2L2) | %Inh (CDC2L5) | %Inh (CDK11) | %Inh (CDK2) | %Inh (CDK3) | %Inh (CDK4-cyclinD1) | %Inh (CDK4-cyclinD3) | %Inh (CDK4)
O=C1NC(=O)C(c2ccccc2Cl)=C1Nc1cccc(C(=O)O)c1 [SB-390526] | 3% | 0% | 4% | 0% | 0% | 0% | 4% | 16% | 0% | 32%
Cc1ccc(C)c(Oc2nccc(-c3c(-c4ccc(F)cc4)ncn3C3CCNCC3)n2)c1.O=C(O)C(F)(F)F.O=C(O)C(F)(F)F.O=C(O)C(F)(F)F [SB-284852] | 0% | 0% | 0% | 7% | 0% | 0% | 23% | 9% | 0% | 0%
O=C1NC(=O)C(c2ccccc2Cl)=C1Nc1ccccc1 [SB-376715] | 16% | 0% | 1% | 10% | 24% | 0% | 68% | 35% | 30% | 0%
O=C1NC(=O)C(c2ccccc2)=C1Nc1ccc(Cl)c(C(=O)O)c1 [SB-390532] | 19% | 0% | 0% | 0% | 0% | 0% | 4% | 20% | 0% | 38%
O=C(O)c1ccc(-c2nc(-c3ccc(F)cc3)c(-c3ccncc3)[nH]2)cc1 [SB-202620] | 14% | 9% | 0% | 0% | 8% | 4% | 3% | 0% | 6% | 9%
COc1ccc(C2=C(Nc3cccc(Cl)c3)C(=O)NC2=O)cc1 [SB-326892] | 16% | 0% | 1% | 0% | 0% | 0% | 0% | 8% | 0% | 0%
O=C1NC(=O)C(c2ccc(Cl)cc2)=C1Nc1cccc(O)c1 [SB-333613] | 14% | 0% | 14% | 8% | 0% | 0% | 0% | 0% | 6% | 9%
CS(=O)(=O)c1ccccc1-c1nc(-c2ccc(F)cc2)c(-c2ccncc2)[nH]1 [SB-213663] | 0% | 7% | 0% | 25% | 4% | 0% | 0% | 28% | 0% | 0%
Cc1cc(C)cc(Oc2nccc(-c3c(-c4ccc(F)cc4)ncn3C3CCNCC3)n2)c1.O=C(O)C(F)(F)F.O=C(O)C(F)(F)F.O=C(O)C(F)(F)F [SB-284851] | 0% | 7% | 18% | 8% | 4% | 16% | 0% | 25% | 0% | 0%
O=C1NC(=O)C(c2ccc(Cl)cc2)=C1Nc1cccc(C(=O)O)c1 [SB-360737] | 11% | 0% | 0% | 0% | 0% | 2% | 0% | 0% | 21% | 0%
O=C1NC(=O)c2c1c(-c1ccccc1)cc1[nH]c3ccc(O)cc3c21 | 6% | 22% | 30% | 3% | 0% | 34% | 19% | 47% | 39% | 0%
O=C1NC(=O)C(c2ccc(Cl)cc2)=C1Nc1ccc(O)c(Cl)c1 [SB-405367] | 8% | 1% | 0% | 13% | 0% | 0% | 0% | 0% | 0% | 0%
O=C1NC(=O)C(c2ccc(Cl)cc2)=C1Nc1ccccc1 [SB-317661] | 19% | 0% | 0% | 7% | 12% | 0% | 5% | 13% | 0% | 2%
COc1cccc(C2=C(Nc3ccc(SC)cc3)C(=O)NC2=O)c1 [SB-331032] | 28% | 0% | 0% | 18% | 0% | 0% | 0% | 16% | 7% | 36%
CSc1ccc(NC2=C(c3cccc(Cl)c3)C(=O)NC2=O)cc1 [SB-341528] | 0% | 0% | 0% | 0% | 0% | 0% | 0% | 0% | 0% | 2%
O=C1NC(=O)C(c2ccccc2)=C1Nc1cc(Cl)c(O)c(Cl)c1 [SB-390530] | 0% | 0% | 7% | 2% | 0% | 13% | 34% | 0% | 10% | 24%
